# Test results taken from a collection of fitness landscapes (doi:10.1016/j.celrep.2020.107928).
# Whole data set: some 81,000 sequences, median “one-hybrid fitness for binding parS DNA” near -0.17, cut for the highest 2% near 0.51. The list shows a part of the results.
# B1: Caulobacter ParB omega fusion; a variant is named by its letters at X, in order, B8GW30 (parent)
# chain: MESVVVGEPGMSEGRRGLGRGLSALLGEVDAAPAQAPGEQLGGSREAPIEILQRNPDQPRRTFREEDLEDLSNSIREKGVLQPILVRPSPDTAGEYQIVAGERAWRAAQRAGLKTVPIMVRELDDLAVLEIGIIENVQRADLNVLEEALSYKVLMEKFERTQENIAQTIGKSXSHVANXMRLLXLPDEVQSYLVSGELTAXHARAIAAAADPVALAKQIIEGGLSVRETEALARKAPNLSAGKSKGGRPPRVKDTDTQALESDLSSVLGLDVSIDHRGSTGTLTITYATLEQLDDLCNRLTRGI
# Variants of: B1
# Assay: one-hybrid fitness for binding parS DNA (scaled: cognate 1, non-cognate 0); higher = stronger binding
# Conditions: with parS DNA site
# Summary of the method: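 Fitness is the rescaled log change in variant-to-wild-type read ratio, measured by Illumina sequencing of plasmids before and after bacterial one-hybrid selection. The scale puts cognate at 1 and non-cognate at 0. Selection of Caulobacter ParB libraries, four specificity codons randomised, took place in E. coli USO with a HIS3 reporter, site 19 bp from the promoter, over 48 hours at 37°C on M9-minus-histidine with 0.1 mM IPTG and 5 mM 3-AT.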
row,Variant,one-hybrid fitness for binding parS DNA
1,KYLR,≤ 0.2
2,VCQY,≤ 0.2
3,GVIP,≤ 0.2
4,TSRF,≤ 0.2
5,AVHR,≤ 0.2
6,TQPK,≤ 0.2
7,FKTG,≤ 0.2
8,SCNR,≤ 0.2
9,PWCR,≤ 0.2
10,LLTL,≤ 0.2
11,PPQM,≤ 0.2
12,SIQN,≤ 0.2
13,CTRH,≤ 0.2
14,RCWK,0.252
15,GTTL,≤ 0.2
16,RESW,≤ 0.2
17,SAWC,≤ 0.2
18,VAGW,≤ 0.2
19,HLRF,≤ 0.2
20,GMLG,≤ 0.2
21,QYPT,≤ 0.2

row,Variant,one-hybrid fitness for binding parS DNA
1,HKFT,≤ 0.2
2,WNKG,≤ 0.2
3,HVCC,≤ 0.2
4,MMVT,≤ 0.2
5,WTHF,≤ 0.2
6,TVAI,≤ 0.2
7,ADHS,≤ 0.2
8,RACD,≤ 0.2
9,HLRC,≤ 0.2
10,DATP,≤ 0.2
11,LERF,≤ 0.2
12,WGNG,≤ 0.2
13,RGTR,≤ 0.2
14,LMNY,≤ 0.2
15,TYKR,≤ 0.2
16,GKWG,≤ 0.2
17,HIGR,≤ 0.2
18,QWIS,≤ 0.2
19,TTAE,≤ 0.2
20,EVNE,≤ 0.2
21,GERR,≤ 0.2

row,Variant,one-hybrid fitness for binding parS DNA
1,SWAR,≤ 0.2
2,GPYR,≤ 0.2
3,RVMD,≤ 0.2
4,IVSC,≤ 0.2
5,HNRA,≤ 0.2
6,SFPV,≤ 0.2
7,QYWR,≤ 0.2
8,HSVF,≤ 0.2
9,PERA,≤ 0.2
10,LKRK,≤ 0.2
11,QLGK,≤ 0.2
12,QKIK,≤ 0.2
13,QDQC,≤ 0.2
14,DTKN,≤ 0.2
15,YKSR,≤ 0.2
16,VSYI,≤ 0.2
17,SLSK,≤ 0.2
18,PDME,≤ 0.2
19,KPHM,≤ 0.2
20,VALG,≤ 0.2
21,PRCF,≤ 0.2

row,Variant,one-hybrid fitness for binding parS DNA
1,WMPP,≤ 0.2
2,MPNM,≤ 0.2
3,MEKW,≤ 0.2
4,HSWP,≤ 0.2
5,RALR,≤ 0.2
6,YTIL,≤ 0.2
7,SLFE,≤ 0.2
8,YHAN,≤ 0.2
9,PTVI,≤ 0.2
10,DIRV,≤ 0.2
11,QIAH,≤ 0.2
12,HPEG,≤ 0.2
13,YPVL,≤ 0.2
14,PQMR,≤ 0.2
15,VMQC,≤ 0.2
16,WRKC,≤ 0.2
17,FSVC,≤ 0.2
18,QLNT,≤ 0.2
19,RMLW,0.295
20,TLWS,≤ 0.2
21,HLQL,≤ 0.2
